Patent publication US20230192883A1 (LEGEND BIOTECH USA, published 2023)

T1: human CD19 on cells (Raji, Daudi, Nalm.6, K562-CD19) (human, UniProt P15391 20-556)
T1 construct: whole, on cells; also called CD19 receptor; CD19 positive cells
T1 sequence (looked up): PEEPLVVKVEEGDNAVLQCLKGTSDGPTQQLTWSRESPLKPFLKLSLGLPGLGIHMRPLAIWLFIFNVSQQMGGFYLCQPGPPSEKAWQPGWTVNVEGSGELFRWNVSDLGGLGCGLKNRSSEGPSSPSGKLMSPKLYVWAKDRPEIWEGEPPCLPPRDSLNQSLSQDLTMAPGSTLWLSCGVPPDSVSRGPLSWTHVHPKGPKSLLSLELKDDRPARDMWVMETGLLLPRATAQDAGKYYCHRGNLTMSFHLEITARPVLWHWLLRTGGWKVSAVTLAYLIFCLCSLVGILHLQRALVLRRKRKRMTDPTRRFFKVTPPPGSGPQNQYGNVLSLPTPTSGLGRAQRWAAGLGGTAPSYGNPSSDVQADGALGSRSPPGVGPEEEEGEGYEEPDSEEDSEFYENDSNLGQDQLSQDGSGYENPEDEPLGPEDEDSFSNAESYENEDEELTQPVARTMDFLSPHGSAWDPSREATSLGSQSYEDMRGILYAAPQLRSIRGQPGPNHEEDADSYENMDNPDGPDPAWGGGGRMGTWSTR

B1: VHH-083-huIgG1Fc mAb (Fc fusion)
chain: QVQLVESGGGSVQAGGSLRLSCGASGNINSRNCMGWFRQAPGKEREGVAAIGQVTGRSYYVDSVKGRFTISLDNAKNTLYLQMNTLKPEDTAMYYCAAAPGCLLSALRSADYRNWGQGTQVTVSS[human IgG1 Fc left out]
notes: No linker between them is stated; also called anti-CD19 VHH-huIgG1Fc mAb; VHH-083-huIgGlFc mAb
B2: VHH-131-huIgG1Fc mAb (Fc fusion)
chain: QVQLVESGGGSVQAGGSLRLSCGASGNINSRNCMGWFRQAPGKEREGVAGIGQVTGRSYYADSVKGRFTISLDNAKNMLYLQMNTLKPEDTAMYYCAAAPGCLLSALRSADYRNWGQGTQVTVSS[human IgG1 Fc left out]
notes: No linker is stated; also called anti-CD19 VHH-huIgG1Fc mAb

Biological target: T1, human CD19 on cells (Raji, Daudi, …)
Experiment: flow cytometry on Raji cells (CD19 positive), detection with PE anti-human IgG1 Fc

Row | Binder | EC50 (read off the curve) [nM]
1 | B1 | ~0.2
2 | B2 | ~0.2
